# Details: Homo sapiens, 25 °C, Urea, phosphate 10 mM, NaCl 100 mM, reversible: yes
substance,measurement,setting,value
Fibroblast growth factor 2 wild type (sequence not shown),denaturant midpoint (higher = more stable),"pH 4, CD",0.1 M
same,denaturant midpoint (higher = more stable),"pH 4, Fluorescence",0.15 M
same,denaturant midpoint (higher = more stable),"pH 4.5, CD",0.38 M
same,denaturant midpoint (higher = more stable),"pH 4.5, Fluorescence",0.39 M
same,denaturant midpoint (higher = more stable),"pH 5, CD",0.85 M
same,denaturant midpoint (higher = more stable),"pH 5, Fluorescence",0.92 M
same,denaturant midpoint (higher = more stable),"pH 5.5, Fluorescence",1.12 M
same,denaturant midpoint (higher = more stable),"pH 6, CD",1.35 M
same,denaturant midpoint (higher = more stable),"pH 6, Fluorescence",1.68 M
same,denaturant midpoint (higher = more stable),"pH 6.5, Fluorescence",1.48 M
same,denaturant midpoint (higher = more stable),"pH 7, CD",1.98 M
same,denaturant midpoint (higher = more stable),"pH 7, Fluorescence",1.98 M
same,denaturant midpoint (higher = more stable),"pH 8, CD",1.65 M
same,denaturant midpoint (higher = more stable),"pH 8, Fluorescence",1.67 M
same,denaturant midpoint (higher = more stable),"pH 8.5, Fluorescence",1.77 M
same,denaturant midpoint (higher = more stable),"pH 9, CD",0.72 M
same,denaturant midpoint (higher = more stable),"pH 9, Fluorescence",1.21 M
